Reference: patent US20230250178A1 (published 2023)

Experiments:
human CCR8 [1] = biological target: T1, human CCR8 (human, UniProt P51685 1-355); test: FACS, CHO-hCCR8
T1 construct: also called hCCR8; P51685_CCR8_HUMAN

cynomolgus CCR8 [2] = biological target: T2, cynomolgus CCR8 (cynomolgus, UniProt O97665 1-356 (rhesus entry)); test: FACS, CHO-cynoCCR8
T2 construct: also called cynoCCR8; G7NYJ2_CCR8_MACFA

human CCR8 [3] = biological target: T1, human CCR8; test: cell-based or functional assay
human CCR8 [4] = biological target: T1, human CCR8; test: FACS, HuT78 (endogenous hCCR8)
human CCR8 [5] = biological target: T1, human CCR8; test: cell-based or functional assay; remark: listed apart in the source
human CCR8 [6] = biological target: T1, human CCR8; test: FACS, CHO-hCCR8; remark: listed apart in the source
cynomolgus CCR8 [7] = biological target: T2, cynomolgus CCR8; test: FACS, CHO-cynoCCR8; remark: listed apart in the source
human CCR8 [8] = biological target: T1, human CCR8; test: FACS, activated human Tregs
[9] = biological target: T3, Cyno_TRD_Ys peptide (# 2) (cynomolgus, Y(SO3) at printed positions 4, 16, 18 (Y3, Y15, Y17 of CCR8); C-terminal K(Biot)); test: SPR, peptide on SA chip
T3 construct: sulfated
T3 peptide: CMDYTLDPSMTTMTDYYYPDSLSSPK
Method: (§1) SPR binding assays were performed to systematically evaluate antibody binding to a) non-sulfated vs sulfated antigen, b) TRD vs N term and c) human vs cynomolgus CCR8. SPR binding assays were performed on a Biacore T200 instrument (Cytiva) at 25° C. with assay buffer 1× HBS-EP+(order no. BR100826, Cytiva). Peptides were used as ligands and were captured using their C-terminal biotin label on to a streptavidin coated sensor chip (“Sensor Chip SA”, Order No. BR100398, Cytiva). To this end, a terminal lysine (K) was added at the C-term of each peptide for biotinylation. For the N term of CCR8, the naturally occurring cysteine between TRD and LID domain was replaced by a serine. […] The concentration of analyte in assay buffer was 0.05-10 nM and the measurement was performed in multicycle kinetics mode. The sensor surface was regenerated with glycine pH 2.0 after each cycle. Obtained sensorgrams were double referenced (subtraction of reference flow cell signal and buffer injection) and were fitted to a 1:1 Langmuir binding model to derive kinetic data using the Biacore T200 Evaluation software.

[10] = biological target: T4, HUMAN_TRD_Ys peptide (# 4) (human, Y(SO3) at printed positions 4, 16, 18 (Y3, Y15, Y17 of CCR8); C-terminal K(Biot)); test: SPR, peptide on SA chip
T4 construct: sulfated
T4 peptide: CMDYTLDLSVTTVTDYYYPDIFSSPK
Method: as §1

[11] = biological target: T5, Cyno_NTerm_Ys peptide (# 6) (cynomolgus, Y(SO3) at printed positions 4, 16, 18 (Y3, Y15, Y17 of CCR8); C-terminal K(Biot)); test: SPR, peptide on SA chip
T5 construct: sulfated; natural cysteine between TRD and LID replaced by serine
T5 peptide: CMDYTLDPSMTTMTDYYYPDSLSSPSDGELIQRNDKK
Method: as §1

[12] = biological target: T6, HUMAN_NTerm_Ys peptide (# 8) (human, Y(SO3) at printed positions 4, 16, 18 (Y3, Y15, Y17 of CCR8); C-terminal K(Biot)); test: SPR, peptide on SA chip
T6 construct: sulfated; natural cysteine between TRD and LID replaced by serine
T6 peptide: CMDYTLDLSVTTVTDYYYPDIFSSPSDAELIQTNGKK
Method: as §1

T2 sequence (O97665 other isoform, or with tags, fused parts or gaps): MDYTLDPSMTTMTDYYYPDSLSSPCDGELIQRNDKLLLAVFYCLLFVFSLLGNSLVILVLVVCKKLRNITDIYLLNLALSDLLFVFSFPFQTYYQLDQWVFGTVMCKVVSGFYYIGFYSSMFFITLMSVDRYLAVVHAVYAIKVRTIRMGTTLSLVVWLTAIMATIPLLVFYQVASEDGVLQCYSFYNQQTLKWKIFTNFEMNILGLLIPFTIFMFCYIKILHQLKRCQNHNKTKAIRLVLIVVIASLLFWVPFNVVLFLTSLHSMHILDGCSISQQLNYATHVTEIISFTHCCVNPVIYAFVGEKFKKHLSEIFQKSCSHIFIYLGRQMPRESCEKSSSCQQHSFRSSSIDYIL

EC50 (human CCR8 [1]): 0.469 nM
EC50 (cynomolgus CCR8 [2]): 0.475 nM
IC50, Ca flux assay (human CCR8 [3]): 0.52 nM
EC50 (human CCR8 [4]): 0.456 nM
B1: TPP-20955 (antibody, human IgG1, lambda)
heavy: EVQLLESGGGLVQPGGSLRLSCAASGFTFSSYGMHWVRQAPGKGLEWVSAIKWGGGSHGYADSVKGRFTISRDNSKNTLYLQMNSLRAEDTAVYYCARGHHKGYDGRFFDYWGQGTLVTVSS[here human IgG1 constant region without letters]
light: QSVLTQPPSVSGAPGQRVTISCTGSSSNIGAGYNVHWYQQLPGTAPKLLIYTNNRRPSGVPDRFSGSKSGTSASLAISGLRSEDEADYYCAAWDASLSGWVFGGGTKLTVLGQPKAAPSVTLFPPSSEELQANKATLVCLISDFYPGAVTVAWKADSSPVKAGVETTTPSKQSNNKYAASSYLSLTPEQWKSHRSYSCQVTHEGSTVEKTVAPTECS
notes: also called 18206-gl-47-hIgG1wt-Lambda; copies: 2 + 2

EC50 (human CCR8 [1]): 1.48 nM
EC50 (cynomolgus CCR8 [2]): 1.92 nM
EC50 (human CCR8 [4]): 33 nM
B2: TPP-18433 (antibody, human IgG1, lambda)
heavy: B1 heavy with A50G, K52N, G54N, H58T, K102S
light: B1 light with V10A, A13T
notes: also called 18206-gl14-hIgG1Lambda; copies: 2 + 2

EC50 (human CCR8 [1]): 1.14 nM
EC50 (cynomolgus CCR8 [2]): 0.77 nM
EC50 (human CCR8 [4]): 4.71 nM
B3: TPP-27480 (antibody, human IgG1, lambda)
heavy: B1 heavy with S31H, K52N, G54N, H58T, K102S
light: B1 light
notes: also called 18206-gl13-gl20-hIgG1Lambda; copies: 2 + 2

EC50 (human CCR8 [1]): 1.12 nM
EC50 (cynomolgus CCR8 [2]): 0.442 nM
EC50 (human CCR8 [4]): 3.76 nM
B4: TPP-18436 (antibody, human IgG1, lambda)
heavy: B1 heavy with S31H, K52N, G54N, H58T, K102S
light: B1 light with V10A, A13T
notes: VH G50A against TPP-18206; also called 18206-gl17-hIgG1Lambda; copies: 2 + 2

EC50 (human CCR8 [1]): 1.69 nM
EC50 (cynomolgus CCR8 [2]): 1.37 nM
EC50 (human CCR8 [4]): 52.4 nM
B5: TPP-18430 (antibody, human IgG1, lambda)
heavy: B1 heavy with S31H, A50G, K52N, G54N, H58T, K102S
light: B1 light with V10A
notes: also called 18206-gl11-hIgG1Lambda; copies: 2 + 2

EC50 (human CCR8 [1]): 2.22 nM
EC50 (cynomolgus CCR8 [2]): 5.88 nM
EC50 (human CCR8 [4]): 13.1 nM
B6: TPP-27479 (antibody, human IgG1, lambda)
heavy: B1 heavy with A50G, K52N, G54N, H58T, K102S
light: B1 light
notes: also called 18206-gl13-gl14-hIgG1Lambda; copies: 2 + 2

EC50 (human CCR8 [1]): 11.1 nM
EC50 (cynomolgus CCR8 [2]): 9.81 nM
IC50, Ca flux assay (human CCR8 [5]): 93.8 nM
B7: TPP-17577 (antibody, human IgG1, lambda)
heavy: EVQLLESGGGLLQPGGSLRLSCAASGFTFSNAWMSWVRQAPGKGLEWVAVISYDGRNKYSADSVKGRFTISRDNSKNTLYLQMNSLRAEDTAVYYCARGLPYGYWGQGTLVTVSS[here human IgG1 constant region without letters]
light: QSVLTQPPSASGTPGQRVTISCSGSSSNIGSNTVNWYQQLPGTAPKLLIYRNNQRPSGVPDRFSGSKSGTSASLAISGLRSEDEADYYCAAWDDSLKALVFGGGTKLTVLGQPKAAPSVTLFPPSSEELQANKATLVCLISDFYPGAVTVAWKADSSPVKAGVETTTPSKQSNNKYAASSYLSLTPEQWKSHRSYSCQVTHEGSTVEKTVAPTECS
notes: also called 497A-M178-K09-1-hIgG1Lambda; copies: 2 + 2

EC50 (human CCR8 [6]): 1.66 nM
EC50 (human CCR8 [1]): 11.5 nM
EC50 (cynomolgus CCR8 [7]): 1.04 nM
EC50 (cynomolgus CCR8 [2]): 2.72 nM
IC50, Ca flux assay (human CCR8 [5]): 4.53 nM
EC50 (human CCR8 [8]): 25.1 nM
EC50 (human CCR8 [4]): 178 nM
B8: TPP-17578 (antibody, human IgG1, lambda)
heavy: EVQLLESGGGLVQPGGSLRLSCAASGFTFSNAWMSWVRQAPGKGLEWVSGINWNGGSTGYADSVKGRFTISRDNSKNTLYLQMNSLRAEDTAVYYCVRTYSGHYGPYFDNWGQGTLVTVSS[here human IgG1 constant region without letters]
light: B7 light with N32H, K97N, A98G, L99W
notes: also called 497A-M128-B10-1-hIgG1Lambda; copies: 2 + 2

IC50, Ca flux assay (human CCR8 [3]): 0.29 nM
B9: TPP-21045 (antibody, human IgG1, lambda)
heavy: B8 heavy with N31S, N52S, N54S, D62L, V97A, Y107F, N110Y
light: B7 light with N32H, K97N, A98G, L99W
notes: also called 17578-gl79-hIgG1-wt-Lambda; copies: 2 + 2

EC50 (human CCR8 [6]): 0.78 nM
EC50 (cynomolgus CCR8 [7]): 0.52 nM
Activity in % [9]: 81.8%
Kd [9]: ~0.171 nM
koff [9]: ~0.000844 s⁻¹
kon [9]: ~4.92e+06 M⁻¹ s⁻¹
Activity in % [10]: 54.8%
Kd [10]: ~0.242 nM
koff [10]: ~0.00162 s⁻¹
kon [10]: ~6.69e+06 M⁻¹ s⁻¹
Activity in % [11]: 107%
Kd [11]: ~0.0922 nM
koff [11]: ~0.00154 s⁻¹
kon [11]: ~1.67e+07 M⁻¹ s⁻¹
Activity in % [12]: 25.2%
Kd [12]: ~0.16 nM
koff [12]: ~0.00419 s⁻¹
kon [12]: ~2.61e+07 M⁻¹ s⁻¹
EC50 (human CCR8 [8]): 15.2 nM
B10: TPP-19546 (antibody, human IgG1, lambda)
heavy: B8 heavy with N31S, N52S, N54S, V97A, N110Y
light: B7 light with N32H, K97N, A98G, L99W
notes: also called 17578-gl33-hIgG1Lambda; copies: 2 + 2

EC50 (human CCR8 [1]): 8.33 nM
EC50 (cynomolgus CCR8 [2]): 85.9 nM
IC50, Ca flux assay (human CCR8 [5]): 1.6 nM
EC50 (human CCR8 [4]): 141 nM
B11: TPP-18205 (antibody, human IgG1, lambda)
heavy: EVQLLESGGGLVQPGGSLRLSCAASGFTFSSYAMSWVRQAPGKGLEWVSGIRWNSGSKGYAGSVKGRFTISRDNSKNTLYLQMNSLRAEDTAVYYCVRSGNYYVGYHGMDVWGQGTLVTVSS[here human IgG1 constant region without letters]
light: QSVLTQPPSASGTPGQRVTISCSGGNSNIGTYFVSWYQQLPGTAPKLLIYTNNQRPSGVPDRFSGSKSGTSASLAISGLRSEDEADYYCETWDSNTRVFGGGTKLTVLGQPKAAPSVTLFPPSSEELQANKATLVCLISDFYPGAVTVAWKADSSPVKAGVETTTPSKQSNNKYAASSYLSLTPEQWKSHRSYSCQVTHEGSTVEKTVAPTECS
notes: also called 004-F10_497A-M296-L12 + 497A-M326-O09-hIgG1Lambda; copies: 2 + 2

Where a chain is given by its changes, count along the chain named. Names and notes keep the numbering of the source. Where two headings read alike, the source gives them in different places. Each block holds one binder with its values, some of them ahead of it.
